This is an account of results in paper PMC4336329 (PLoS ONE, 2015).

Each structure is given as a SMILES string. Hit rate of the full screen: of about 310,000 compounds, about 14,000 (4.5%) showed an effect of 50% or more. The effect is printed as a negative number. Some of the results follow.
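Also: peak tail current of the secondary pulse compared with the same well before compound.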

This experiment deals with human ether-à-go-go-related gene (hERG) potassium channel (human, UniProt Q12809). Put plainly: primary screen, population patch clamp on CHO cells stably expressing hERG.
Sequence of human ether-à-go-go-related gene (hERG) potassium channel (Q12809 whole entry, looked up): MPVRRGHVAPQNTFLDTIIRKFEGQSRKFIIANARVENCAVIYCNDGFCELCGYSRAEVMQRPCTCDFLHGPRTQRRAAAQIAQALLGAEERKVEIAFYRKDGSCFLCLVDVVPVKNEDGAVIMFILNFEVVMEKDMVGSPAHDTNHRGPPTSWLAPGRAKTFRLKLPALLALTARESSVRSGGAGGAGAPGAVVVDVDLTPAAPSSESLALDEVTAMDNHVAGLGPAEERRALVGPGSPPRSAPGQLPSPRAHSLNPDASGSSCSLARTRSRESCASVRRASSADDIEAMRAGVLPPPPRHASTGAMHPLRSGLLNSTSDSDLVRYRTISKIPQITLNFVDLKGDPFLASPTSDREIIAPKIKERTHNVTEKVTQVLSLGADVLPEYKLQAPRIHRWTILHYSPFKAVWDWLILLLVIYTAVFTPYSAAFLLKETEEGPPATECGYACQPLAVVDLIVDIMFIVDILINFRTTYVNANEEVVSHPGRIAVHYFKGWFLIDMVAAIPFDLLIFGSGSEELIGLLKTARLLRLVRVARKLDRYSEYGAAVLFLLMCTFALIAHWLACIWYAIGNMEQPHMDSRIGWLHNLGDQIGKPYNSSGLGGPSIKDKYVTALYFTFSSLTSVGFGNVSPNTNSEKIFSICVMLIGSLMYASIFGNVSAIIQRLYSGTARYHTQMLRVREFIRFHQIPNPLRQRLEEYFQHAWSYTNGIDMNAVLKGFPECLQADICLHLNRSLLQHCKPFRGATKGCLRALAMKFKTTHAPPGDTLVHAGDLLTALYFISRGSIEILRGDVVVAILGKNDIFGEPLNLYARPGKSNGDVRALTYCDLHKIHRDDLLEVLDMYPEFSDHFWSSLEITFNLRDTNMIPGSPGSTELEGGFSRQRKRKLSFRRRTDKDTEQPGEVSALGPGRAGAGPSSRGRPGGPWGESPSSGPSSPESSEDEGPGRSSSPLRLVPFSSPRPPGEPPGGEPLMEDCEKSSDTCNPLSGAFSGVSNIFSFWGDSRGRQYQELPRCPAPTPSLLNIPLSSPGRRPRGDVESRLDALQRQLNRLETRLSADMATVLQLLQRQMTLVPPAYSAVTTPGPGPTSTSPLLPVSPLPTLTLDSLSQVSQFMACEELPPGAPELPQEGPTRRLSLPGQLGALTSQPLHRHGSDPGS
As for `N#C/C(=C\c1cc2ccccc2nc1N1CCOCC1)C(=O)Nc1ccc(N2CCOCC2)cc1`, the “hERG current change (%, negative = inhibition) at 10uM” value is reported as -24.2%. The value for `Cc1cc2ccccc2c(=O)n1CC(=O)N1CCN(c2cccc(Cl)c2)CC1` was -2.43%; that for `C/C(NC(=O)c1cccs1)=C1\C(=O)C[C@@H]2[C@H]1C2(C)C` was -19.6%; that for `CN(CC(=O)NC(=O)NC1CCCCC1)Cc1ccccc1` was -8.93%. With `Cc1ccc(-n2c(SCC(=O)Nc3ccc4c(c3)OCO4)nnc2-c2ccccn2)cc1` the figure was 4.28%; with `COc1ccc(/C=N/N=C2\SC(CC(=O)O)C(=O)N2c2ccccc2)c(OC)c1` (stereo not shown), 4.13%; with `CCC(C)[C@H](N)c1cn([C@@H](Cc2cc3ccccc3[nH]2)C(=O)N2CCNCC2)nn1.Cl` (stereo partly shown), 18.5%. The value for `CCOC(=O)CSC1=C(C#N)C(=O)NC(c2ccc(OC)cc2)S1` (stereo not shown) was 19.9%; that for `Cc1nn(Cc2ccc(Cl)cc2Cl)c(C)c1NC(=O)NC12CC3CC(CC(C3)C1)C2` was 7.38%; that for `Cn1nc(-c2ccc(C(=O)Nc3ccc(F)cc3)cc2)c2ccccc2c1=O` was -13%.

Regarding `COc1cc(SC)ccc1C(=O)Nc1ccccn1`, the “hERG current change (%, negative = inhibition) at 10uM” value worked out at 7.08%.

`O=C(CCCSc1nc2ccccc2[nH]1)NC(c1ccccc1)c1ccccc1`: the “hERG current change (%, negative = inhibition) at 10uM” value was -32.6%. As to `CC(C)n1ncc2c(C(=O)Nc3ccc(S(N)(=O)=O)cc3)cc(C3CC3)nc21`, the “hERG current change (%, negative = inhibition) at 10uM” value is 0.233%. As for `CCn1c(N2CCN(C(=S)NCC(C)C)CC2)nc2ccccc21`, the “hERG current change (%, negative = inhibition) at 10uM” value is -30.4%. With `O=C(Nc1cccc(S(=O)(=O)N2CCCCC2)c1)c1ccc([N+](=O)[O-])o1` the figure was -51.4%. With `O=C(CCC(=O)c1cccs1)NCc1ccccc1` the figure was 1.91%. With `Cc1nc(Nc2nc3ccccc3o2)nc(C)c1C` the figure was 10.3%; with `C=CCOc1ccccc1/C=C/C(=O)O`, -4.13%; with `CCC1(C)Cc2ccccc2-c2c1c(=O)n(-c1ccc(C)cc1)c1nnnn21` (stereo not shown), 2.8%. For `Fc1ccccc1-c1nc(NCCCN2CCOCC2)c2ccccc2n1`, the “hERG current change (%, negative = inhibition) at 10uM” value was -45.9%. The value for `Cc1cc2c(cc1C)N(C(=O)CSc1nncn1C)C(C)(C)c1ssc(=S)c1-2` was -35.7%; that for `Cc1cccc(OCC(=O)Nc2ccc(C(=O)Nc3ccccc3C(=O)O)cc2)c1C` was -7.2%; that for `NC(=O)N=Nc1c(O)n(Cc2ccccc2)c2ccc(Br)cc12` was -9.32%. The value for `Cc1ccc(N(CC(=O)NCC2CCCO2)C(=O)CCC(=O)Nc2ccccn2)cc1` (stereo not shown) was 6.62%.

Take `CCCCc1n[nH]c(=S)n1Cc1ccc(Cl)cc1`: the “hERG current change (%, negative = inhibition) at 10uM” value is -30.2%. For the molecule `CCCNc1nc(N2CCOCC2)nc(N2CCOCC2)n1`, the “hERG current change (%, negative = inhibition) at 10uM” value is recorded as -2.88%. As for `CCc1ccccc1NC(=O)Nc1ccc(F)cc1F`, the “hERG current change (%, negative = inhibition) at 10uM” value worked out at 7.78%. Turning to `COc1ccc(S(=O)Cc2ccc(C(=O)NC3CC3)o2)cc1` (stereo not shown), the “hERG current change (%, negative = inhibition) at 10uM” value is listed as 10.1%. The value for `Brc1ccc(N=Nc2ccc3ccccc3n2)cc1` was 4.03%; that for `COc1ccccc1C(=O)COC(=O)c1ccc(Cl)nc1` was -37.3%. The value for `CC1CCCCC12NC(=O)N(CC(=O)NCCc1ccc(F)cc1)C2=O` (stereo not shown) was -19.7%; that for `Cc1ccc2[nH]c(=O)c3cc(C(=O)N4CCN(C(=O)c5ccco5)CC4)sc3c2c1` was -21.6%; that for `CC(c1ccccc1)n1cc(C(=O)NCc2ccccn2)nn1` (stereo not shown) was 4.98%. Turning to `O=C(CSc1nnc2ccc3ccccc3n12)N1CCOCC1`, the “hERG current change (%, negative = inhibition) at 10uM” value is -10.5%. For the molecule `COC(=O)CC(c1ccccc1F)N1Cc2ccccc2C1=O` (stereo not shown), the “hERG current change (%, negative = inhibition) at 10uM” value came out at 0.449%. With `Cc1nnnn1/C(=C\c1ccccc1)C(=O)OCC(=O)NC(C)(C)C` the figure was -2.84%. In the case of `COc1ccc(CCCC(=O)N/N=C/c2cccc(OC)c2O)cc1C`, the “hERG current change (%, negative = inhibition) at 10uM” value was -4.91%. In the case of `COc1ccc(CCNC(=O)CSc2nnc(Cn3c(=O)sc4ccccc43)n2C)cc1OC`, the “hERG current change (%, negative = inhibition) at 10uM” value was -11.1%. Turning to `COc1ccc2nc3oc(C(=O)NCCCOC(C)C)cc3cc2c1`, the “hERG current change (%, negative = inhibition) at 10uM” value is listed as -0.766%.

As to `Oc1ccc(Br)cc1-c1cc(-c2ccco2)[nH]n1`, the “hERG current change (%, negative = inhibition) at 10uM” value came out at 11.9%. The value for `CCOc1ccc2nc(SCC(=O)NCc3ccc(OC)cc3)[nH]c2c1` was -17.8%; that for `CC1(C)Cc2c(cnn2-c2ccccc2)C(NC(=O)CCCN2CCCC2=O)C1` (stereo not shown) was 3.86%.

For the molecule `Cn1nccc1NC(=O)Nc1cccc(Cl)c1Cl`, the “hERG current change (%, negative = inhibition) at 10uM” value is 16.5%. The value for `CCOC(=O)CSc1ncnc2c1c(-c1ccccc1)cn2-c1ccc(OC)cc1` was 6.55%. The value for `CC(=O)CSc1nnc(NC(=O)CCc2ccccc2)s1` was 7.09%; that for `CCn1c(Sc2nc(C)nc3scc(-c4cccs4)c23)n[nH]c1=O` was -9.39%; that for `COc1ccc2cc(C(=O)NCCO)sc(=O)c2c1OC` was -3.69%. Take `COc1ccc(OC)c(C(=O)NC(CC(N)=O)c2ccc(NCCN3CCOCC3)c([N+](=O)[O-])c2)c1` (stereo not shown): the “hERG current change (%, negative = inhibition) at 10uM” value amounted to 6.63%.

Turning to `COc1cc(/C=C2\SC(=S)N(NC(=O)c3ccc(O)cc3)C2=O)ccc1O`, the “hERG current change (%, negative = inhibition) at 10uM” value came out at 10.8%.

As for `CCn1ccc(C(=O)Nc2ccsc2C(=O)OC)n1`, the “hERG current change (%, negative = inhibition) at 10uM” value is -10.8%. The value for `Cc1ccc(-c2cc(C(=O)NCC3CCCO3)no2)cc1` (stereo not shown) was -0.728%; that for `CCOC(=O)c1cnc2ccc(OC)cc2c1NCCc1ccc(OC)c(OC)c1` was -76.6%; that for `CC1(NC(=O)c2cc(Cl)nc3ccccc23)CCS(=O)(=O)C1` (stereo not shown) was 7.55%. As for `Cn1c(SCC(=O)N2c3ccccc3Sc3ccccc32)nnc1-c1ccco1`, the “hERG current change (%, negative = inhibition) at 10uM” value was -28.1%.

For `O=C(CCCn1c(=O)c2sccc2n(CC(=O)NCC2CCCO2)c1=O)NCc1ccco1` (stereo not shown), the “hERG current change (%, negative = inhibition) at 10uM” value is 6.73%. Consider `COc1ccc2cc3cc(C(=O)NCc4ccco4)oc3nc2c1`, for which the “hERG current change (%, negative = inhibition) at 10uM” value was -9.75%.

Consider `O=C(C1CC(=O)N(c2ccc(F)cc2)C1)N1CCCCC1` (stereo not shown), for which the “hERG current change (%, negative = inhibition) at 10uM” value is recorded as -0.378%.

Regarding `O=C(c1cc([N+](=O)[O-])ccc1Cl)N1CCc2ccccc21`, the “hERG current change (%, negative = inhibition) at 10uM” value is given as -19.9%. Take `CC1(C)Cc2c(sc3c2c(N)nc(=S)n3Cc2ccc(Br)cc2)CO1`: the “hERG current change (%, negative = inhibition) at 10uM” value is listed as -27.2%. With `CSc1nc2ccc(NS(=O)(=O)c3ccccc3F)cc2s1` the figure was 1.47%. Consider `Cc1ccc(N(Cc2ccccc2)C(=O)c2ccc(S(=O)(=O)N3CCOCC3)cc2)cc1`, for which the “hERG current change (%, negative = inhibition) at 10uM” value was -28.5%.

For the molecule `CCOC(=O)c1nnsc1-c1ccc(-c2snnc2C(=O)OCC)cc1`, the “hERG current change (%, negative = inhibition) at 10uM” value is on record as -6.1%. With `O=C(NCN1CCN(c2ccccc2)CC1)c1cnccn1` the figure was 19.4%. With `CCCN(Cc1ccco1)S(=O)(=O)c1ccc(OC)c(OC)c1` the figure was 0.00658%; with `COCCN1CN=C(Nc2nc3ccccc3s2)NC1`, -8.77%. With `COc1ccc(NC(=O)COC(=O)Cn2nnc3ccccc32)cc1` the figure was 8.35%.

For the molecule `CCNCc1cc(Br)c(OCC(=O)Nc2ccccc2)c(OC)c1.Cl`, the “hERG current change (%, negative = inhibition) at 10uM” value was -19.8%. The value for `CCOC(=O)Cc1cc(=O)[nH]c(/N=C(\N)Nc2ccc(C)cc2C)n1` was 7.25%; that for `Cc1ccc(NC(=O)Cc2csc(-c3ccccc3)n2)cc1F` was 0.0343%. For `Cc1nc(N)sc1C(=O)N/N=C/c1c[nH]c2ccccc12`, the “hERG current change (%, negative = inhibition) at 10uM” value is on record as -1.81%.

With `CCC1=C(OC(=O)N(CC)CC)N2C(=O)OC(=NCC3CC3)[C@]2(Cc2ccccc2)[C@H]2C1=CC[C@H]1C(=O)N(C)C(=O)[C@H]12`, the “hERG current change (%, negative = inhibition) at 10uM” value is given as -17.7%.

Turning to `COc1ccc(N2CCN(C(=O)CCCCCn3c(=S)[nH]c4cc5c(cc4c3=O)OCO5)CC2)cc1`, the “hERG current change (%, negative = inhibition) at 10uM” value is reported as 19.3%. On to `COc1ccc(-n2nnnc2SCC#CCO)cc1`, for which the “hERG current change (%, negative = inhibition) at 10uM” value is on record as -17.2%. With `CCCCN(C(=O)c1nn(C)c(=O)c2ccccc12)c1c(N)n(CCC)c(=O)[nH]c1=O` the figure was -1.19%; with `COc1ccc(N(CC(=O)NCc2ccc3c(c2)OCO3)S(=O)(=O)c2ccccc2[N+](=O)[O-])c(OC)c1`, -29.1%. As for `O=C(c1ccncc1)N1CCc2ccccc2C1`, the “hERG current change (%, negative = inhibition) at 10uM” value is -1.35%. With `CC(C)C(NC(=O)c1ccc(F)cc1)C(=O)Nc1cccnc1` (stereo not shown) the figure was 0.585%.

For the molecule `O=C(CCn1c(=O)sc2ccccc21)NCCN1CCOCC1`, the “hERG current change (%, negative = inhibition) at 10uM” value is listed as -4.66%. For the molecule `CC(C)c1nc(SCC(=O)NC2CCCCC2)c2ccccc2n1`, the “hERG current change (%, negative = inhibition) at 10uM” value stood at 14.6%. The value for `CCN1CCN(CC(=O)n2c3c(c4ccccc42)CC(C)CC3)CC1` (stereo not shown) was -23.9%; that for `COc1cc(/C=C2\C(=O)ON=C2c2ccccc2)cc(OC)c1OC` was 25.6%. The value for `O=C(Nc1cccs1)N1CCN(c2ncccn2)CC1` was 7.18%. Turning to `O=C(COc1ccc(S(=O)(=O)N2CCOCC2)cc1)NCCCn1ccnc1`, the “hERG current change (%, negative = inhibition) at 10uM” value is given as -17.3%. The value for `Cc1ccc(OCCC(=O)OCC(=O)N2CC(=O)Nc3ccccc32)cc1` was 4.57%.

As to `O=C(NCc1ccc2c(c1)OCO2)c1cc(COc2c(F)cccc2F)on1`, the “hERG current change (%, negative = inhibition) at 10uM” value is reported as -4.93%. As for `c1ccc(-c2cc3c(NCC4COc5ccccc5O4)ncnc3s2)cc1` (stereo not shown), the “hERG current change (%, negative = inhibition) at 10uM” value stood at 10.6%. With `O=C1/C(=C/N(C(=O)c2ccco2)c2ccc(Br)cc2)Sc2ccccc21` the figure was -7.76%. For `Cc1ccc(CNC(=O)CS(=O)Cc2nc(-c3cccs3)oc2C)cc1` (stereo not shown), the “hERG current change (%, negative = inhibition) at 10uM” value was -30.3%.
